Whole data set: some 33,000 sequences, median “E-score (-0.5 to 0.5)” near -0.017, cut for the highest 2% near 0.3. Some of the results follow.
Target: T1, Sut1 (UniProt P53032)
T1 sequence: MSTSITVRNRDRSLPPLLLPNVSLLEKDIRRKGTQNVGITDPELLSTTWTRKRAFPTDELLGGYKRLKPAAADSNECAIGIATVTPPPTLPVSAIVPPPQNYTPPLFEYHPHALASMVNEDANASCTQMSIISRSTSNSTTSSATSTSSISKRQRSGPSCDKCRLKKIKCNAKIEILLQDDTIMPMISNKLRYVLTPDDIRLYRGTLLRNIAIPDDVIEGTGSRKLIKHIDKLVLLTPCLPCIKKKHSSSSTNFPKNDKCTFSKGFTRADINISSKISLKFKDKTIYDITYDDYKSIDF
Assay: PBM E-score (8-mer binding enrichment) (E-score (-0.5 to 0.5)); higher = stronger / more preferred TF binding; most listed sequences are background and not binding sites
Settings: protein concentration: 200 nM; construct: GST-full length
Outline: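 Bound GST-tagged yeast transcription factors, applied at about 100-200 nM to double-stranded universal all-10-mer Agilent arrays, were detected with fluorescent anti-GST. Scans were normalised with masliner. A modified Wilcoxon-Mann-Whitney statistic, the E-score, was assigned to each ungapped eight-base word pooled with its reverse complement by the Universal PBM Analysis Suite.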

Sequence	PBM E-score
AAACAGCG	0.17
CTCTGTGA	-0.105
CGTACCAA	-0.0518
AGGTGAGA	-0.0109
GGCTATTA	-0.0333
CTAGTACA	0.132
ATCCGAAC	0.213
AGCTTTCC	0.0294
AGAGCCGA	0.0868
CAACTCAG	-0.155
AGATGCAT	-0.00434
GGATATTA	0.102
ACCTTACG	0.0293
GCAGCCCC	0.195
ATGGCGCG	-0.0467
CGTGTGCC	-0.274
AGGAGACC	-0.18
CCGTGCGC	-0.0983
ATGGCTAG	-0.0686
CATGATGC	-0.00269
ATAGCTTA	0.0881
AACGTCGG	0.0158
GGTAAGAA	-0.141
ATCCTCTA	-0.0137
TCGACAAA	0.213

Sequence	PBM E-score
GCTAGCCC	-0.172
ATTTTCAG	0.233
ATTCGTAG	0.0467
GTAAACCA	-0.063
CTAGCGGA	0.0881
CACGCGGG	-0.176
CGAGGCTC	-0.259
CTCCCCAC	-0.256
AGTAATGC	0.0692
AACCGAGA	0.195
GCTTCGCC	-0.104
CCTTATCG	0.121
AGGTACGC	-0.0325
ACGTATTC	-0.0472
AACGCTGG	-0.0988
AGCCGAAT	0.15
CGCTAGGC	-0.138
GGCCCCAA	-0.279
CATATCAA	0.0696
CAGGTATA	-0.142
AAGATAGA	0.0968
ACCAGCTG	-0.203
ACTTGCGG	-0.0528
AAGTCAGG	-0.0851
TACGTACA	0.0411

Sequence	PBM E-score
CTTGACGC	-0.169
TCGCAAGA	-0.186
TCCCCTAA	-0.00841
ACTGCTGC	-0.129
GTCGGAGA	0.325
ATCCAGAG	0.0385
AGTCAGCG	0.0334
GAACCACC	0.0336
GTGCAAAA	0.0548
AAATTCAG	0.027
CCATAGGA	-0.252
TCCAGGAA	-0.078
CTGCGTAA	-0.0977
ACCAATAA	0.102
CACCCAAA	-0.0808
CTTTTGCA	0.185
TAGATTCA	0.0259
CCCGGACA	0.354
ACACGCGA	-0.014
TAACGTAA	0.138
ATCCAGCC	-0.155
CTTATGTA	0.16
CGGACAGA	0.0507
CTTTTAAC	0.125
CAACTAGC	0.0249

Sequence	PBM E-score
GTGCGTCA	-0.079
GGTACGCA	0.0653
GTGCCGTA	0.051
CGGGTCAC	-0.208
AAACGGTT	-0.124
ACGCCTAG	-0.199
AGAATCGA	0.0407
CGTATCAG	-0.0598
ATTCAGAG	0.103
CCGAACTA	0.198
CACGAGAC	-0.165
GTCGGTCA	-0.109
ACCTCCAT	-0.232
CCCGTTCG	-0.0433
AGACTGAA	0.0426
AACTTGGT	0.0492
AAAGAGTT	0.173
AAACAACC	0.233
GTTAGAAA	0.0725
CCACGGGG	-0.12
GTGAGAAA	0.214
CCGCCAAC	-0.121
AGAGAGGA	-0.219
CTTAAGCA	0.0326
ATTTCTGC	0.192

Sequence	PBM E-score
CCCGCATA	-0.0197
GCCGTACA	0.086
CAGATAAC	0.081
ACTCGTGG	-0.221
CTCTCAGA	-0.139
AGCCAATG	-0.0122
ACCGTTAG	0.00367
CCTATTAA	0.087
AATATGAC	0.142
ACCGGTAA	-0.0335
GTGTCGTA	-0.155
CCCTGCCG	-0.232
GAGGAGGA	-0.154
AATTATTG	0.173
AAACTAGA	0.0134
CTCTACTC	-0.0336
AATTCCCA	0.0113
GTTAGAGA	-0.112
AGAACTTA	0.216
ACCTAGGG	-0.141
ATAGGTAC	0.177
CTTTCGAA	0.0233
AGACCATG	-0.363
GATGGCTA	0.0396
TGAACACA	0.0445

Sequence	PBM E-score
TAAGAGAA	0.0235
AGTCATAG	-0.181
CGTCAGCC	0.0636
ATAATACA	0.275
CGAACAAC	0.213
ATAGTCCG	0.473
GATGGGCC	-0.23
GATGAACC	-0.0422
ATGTAACG	0.18
AACTGGGG	-0.145
CAGCCAAG	-0.167
ATACTACC	0.0381
AAAGACAC	0.13
CCCTTTCG	0.0903
AACTTCAC	0.232
AGTTCTAG	0.0928
AGGCTAGC	-0.2
CCACATAG	-0.0972
AAAGTCAC	0.079
CCCCCTAA	-0.175
TCACTACA	0.186
TACCAATA	0.0899
AAAAAGCA	0.00986
GAGTTCAC	0.0677
AAAGGATG	-0.0885

Sequence	PBM E-score
GGACCGCC	-0.195
ACCGTGCT	-0.233
AGTATTGG	0.032
CAGGTATG	-0.0447
TCGGATCA	0.119
CTCCTGAC	-0.0811
CGCTCGAC	-0.346
CTTAGCGC	0.0661
CAGTAAGG	-0.109
AGAACGAC	-0.00816
AAACGAAT	0.136
AGCGTCTG	-0.211
ATCGTTCC	-0.174
TATTCAGA	0.12
ACCCTTAG	-0.214
ATATCACA	0.024
AAACGTAA	0.179
CACGGGTA	-0.251
CAAGGGAC	-0.305
AGATGGTA	0.0768
CTGCTAAA	0.0119
CGTGGCGC	-0.19
AGTTACAT	-0.00161
GCGGGACA	-0.159
TGCAAGAA	0.217

Sequence	PBM E-score
CCTCCGAG	0.0578
GGATCGGA	0.277
GAATGGAA	-0.00112
AAGGGTAA	-0.192
CCGAACGC	0.137
ACACGAGG	-0.221
CCAGAGGA	-0.196
AAATCAGG	0.0614
GATGGTCA	0.025
CGAAATCG	0.111
CTGAACAA	0.138
CTTAGATC	-0.0468
CGCTCCCG	-0.314
CTGTGCCA	-0.258
CATGGACG	-0.0757
CGCGCCGC	-0.0461
ACCAACCC	-0.212
AGAATTAT	0.218
ACAGCTGA	-0.157
ACGTCGGA	0.285
CTTAAAAA	0.101
AGGTTCAG	-0.0444
CTTCCTCC	-0.165
AACGCGTG	-0.0703
CTAAGCTA	0.043

Sequence	PBM E-score
AAGTCACC	-0.0436
AGTCGGGC	-0.115
ACTGCTCC	-0.0101
GGAGCTGA	0.203
GAAACGGA	0.284
AAGCAGTG	-0.117
GGCCACAA	-0.0979
CGAAGCCC	-0.0968
CGCAGGCC	-0.14
CGCGCGTC	0.11
CGCAGCGA	-0.16
ATATGAGG	-0.0891
ATTGTCGC	-0.0361
CCTCTATA	-0.0858
ACGAAAAA	0.106
CCCCGCAG	-0.161
GGGTCCCA	-0.307
CCGGCACG	0.00357
AAAGCTAG	0.00596
CTCGAGGC	-0.229
CGGCTAAG	-0.0579
ACTGTATG	0.0934
CGGCCAGA	-0.104
ACGGCTAG	-0.281
AACCCATT	0.143

Sequence	PBM E-score
CCTGATGC	0.0278
GGTGACTA	-0.0599
ATACCCAG	-0.271
ATTGAACA	0.134
CCCGAGAA	0.157
AAGAGTCG	0.00242
AGGTGACG	-0.219
CGTGTAGA	0.026
GGGATCCA	-0.0859
CACGTCAC	0.00874
ATATAACG	0.299
CGTACGGC	-0.194
TGCGAGCA	-0.072
CAATATAA	0.308
AAGACAAC	0.243
GCACCTGA	-0.233
GCAAGGAC	-0.1
GCGGAAAA	0.174
ACCATGAC	-0.0527
AAGTCTAG	-0.0617
ATTTGACC	0.0463
ACACAGTA	-0.0509
ACCCTGAT	-0.266
ACAGAACT	0.0341
AACGATGG	-0.00089

Sequence	PBM E-score
CTGATATC	0.0296
AATCTAAA	0.241
AGATGAGA	0.00604
ATAAGGGC	-0.0567
ATCACCAC	0.164
AGGCAAAC	-0.0553
ACTTAGCG	0.0233
CAGTAGTC	-0.287
GTCGAACA	-0.0651
ACTTTGAA	0.252
CACCGCTC	0.0294
ATGATATG	0.241
GTGCACGA	-0.157
CCTTCTCG	-0.131
GGAGTGAC	0.254
CAGAGAGG	-0.375
CTCTTGGA	-0.0267
CCAGGGAG	-0.251
ATTGACTA	0.042
GGCCGTCA	0.00137
GAAATCTC	0.092
CATCCTTA	-0.0588
AGAAGGGG	-0.385
CCGCCTCA	-0.18
CCTGCGCG	0.0101

Sequence	PBM E-score
CGAAGATA	0.132
ACGTTAAC	-0.072
ACATTCAC	0.0415
CCACCATA	-0.0903
ACGCTCTG	-0.2
ATTTGATG	0.177
GTCTCCCA	-0.259
AAACACTC	0.2
AGGATCTC	-0.146
AGCACACA	-0.167
CAACCGAC	0.0614
CTGCACAA	-0.0274
CTTCGTGA	-0.113
ATGGGTGC	-0.117
AGGAGTCC	0.202
TCGGCACA	-0.0667
GACGGCCC	-0.379
ACCCGGCT	-0.16
ATCATCCG	-0.0903
CCGAGTTA	0.0414
GACTGTTA	-0.0152
TCTGCACA	-0.275
AAGCAGGC	-0.308
CTGTTCCA	-0.094
AAAACGAT	0.154

Sequence	PBM E-score
CAAGGAGA	0.0606
ATTATACA	0.251
AGCGACAT	-0.0586
CCGAACCG	0.184
CAACAGCG	-0.19
CGGAGGAG	-0.0266
ACGCTCGG	0.111
AACGCCCT	-0.159
CTTAAGTC	-0.00478
GAGGGACC	-0.142
CAAATCGC	-0.0402
GGGGCCAC	-0.304
GCCGGCAC	0.0646
GGATGCAC	-0.257
ATTCGAAA	0.248
AGTTGGTC	0.0453
ACATATAA	0.257
AACTACGT	-0.0634
GTTAGCCA	0.0339
ATGACAGA	0.0896
ATTACAGG	0.173
ACGTAACA	0.0183
ATCTAAGA	0.0658
ACGGCCGT	-0.257
AAGGGAAC	-0.133

Sequence	PBM E-score
GGACCGAA	0.151
CGCAATAA	0.218
CATAACGA	-0.00264
TAGTGCAA	0.0855
CTTGCGGA	0.194
ATGTGTGC	-0.195
AGCGCTTG	0.0389
GTGGTAAC	0.0333
ATATGGAA	0.0219
CGTCAAAA	0.254
CATAGTCG	-0.0151
CTGGTAGC	-0.0326
ACCGGACG	0.114
ACCCTCCG	-0.153
AAGAATGC	0.0552
CGTATTGA	0.0752
GGGCACTA	-0.167
ACTATAAA	0.321
ATATCTTG	0.0892
